Results reported in a compilation of properties of binary mixtures (doi:10.1016/j.molliq.2013.10.014).
Some of these densities may be calculated back from excess volumes.

Assay: xn = mol fraction of the nth substance listed
Details: 100 kPa

c1ccccc1 + CCCC[n+]1ccn(C)c1.O=S(=O)([O-])C(F)(F)F
x1 = 1
Details	mass density [kg/m3]
298.15 K	874
328.15 K	841

c1ccsc1 + CCCC[n+]1ccn(C)c1.O=S(=O)([N-]S(=O)(=O)C(F)(F)F)C(F)(F)F
mass density [kg/m3]
Details	x1 = 0.089	x1 = 0.276	x1 = 0.336	x1 = 0.561	x1 = 0.77	x1 = 1
298.15 K	1429	1406	1397	–	1308	–
308.15 K	–	–	1387	1359	1298	1047
318.15 K	1410	1386	1377	1349	1287	1034
328.15 K	1401	1376	1368	1339	1277	1022

CCCC[n+]1ccn(C)c1.O=S(=O)([O-])C(F)(F)F + c1ccccc1
mass density [kg/m3]
Details	x2 = 0	x2 = 0.122	x2 = 0.304	x2 = 0.353	x2 = 0.573
298.15 K	–	–	1246	1232	–
308.15 K	1292	–	–	1224	1160
318.15 K	1284	1264	1229	1216	–
328.15 K	1276	1256	–	1208	1143

CCCC[n+]1ccn(C)c1.O=S(=O)([N-]S(=O)(=O)C(F)(F)F)C(F)(F)F + c1ccsc1
x2 = 0
Details	mass density [kg/m3]
298.15 K	1437
308.15 K	1428
318.15 K	1418

c1ccccc1 + CC[n+]1ccn(C)c1.O=S(=O)([N-]S(=O)(=O)C(F)(F)F)C(F)(F)F
x1 = 1
Details	mass density [kg/m3]
298.15 K	874
308.15 K	863
318.15 K	852
328.15 K	841

CC[n+]1ccn(C)c1.O=S(=O)([N-]S(=O)(=O)C(F)(F)F)C(F)(F)F + c1ccccc1
mass density [kg/m3]
Details	x2 = 0	x2 = 0.135	x2 = 0.339	x2 = 0.471	x2 = 0.492
298.15 K	1519	–	–	1381	1373
308.15 K	1509	1480	1421	1371	1363
318.15 K	1499	1469	1411	–	1352
328.15 K	–	1460	–	1350	1342
